Experimental data from publication PMC12040169 (PLOS Biology, 2025).
The list shows a part of the results.

Each compound was assayed on T1, C. trachomatis L2/434/Bu expressing GFP (CTL2-GFP). Details: total inclusion area; 28.5 h, 10 µM; inhibitor.
T1 construct: L2/434/Bu GFP intracellular growth in HeLa cells
Parameters: species or system HeLa; C. trachomatis total inclusion area by high-content imaging, normalised to DMSO
In short: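 High-content images of fixed, Hoechst-stained infected cultures supply inclusion area and count (growth) plus nuclei number (viability), complementing bulk GFP/resorufin fluorescence. MIC determination is unchanged from the primary assay.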
`COc1ccccc1C1(NC(=O)CCn2cccn2)CCCC1` [CBK283626] was tested, and the “% of control remaining” value was 107.586.
`COCC(=O)NC1CCN(CC2(c3cccc(F)c3)CCCC2)CC1` [CBK282546] was tested, and the “% of control remaining” value was 74.2301.
In the case of `CC(CN1CCCCC1)NC(=O)c1cc(-c2ccncc2)nc2ccc(Br)cc12` (stereo not shown) [CBK267756], the “% of control remaining” value is reported as 89.6206.
With `Cc1noc(C)c1NC(=O)c1cnc2ccccc2n1` [CBK200220] the “% of control remaining” value was 78.3706.
In the case of `CCNC(=O)NC[C@H]1C[C@@H]2CCN1C[C@@H]2c1cc(-c2ccc(F)cc2)nn1C` [CBK289110], the “% of control remaining” value is reported as 100.061.
`NC(=O)C1(N2CCCCC2)CCN(C(=S)Nc2ccc(Oc3ccccc3)cc2)CC1` [CBK265862] was tested, and the “% of control remaining” value was 117.241.
In the case of `COc1ccc([C@@]23CC[C@@H](NC(=O)Nc4ccc(OC)c(C(F)(F)F)c4)C[C@@H]2N(C)CC3)cc1OC` [CBK051268T], the “% of control remaining” value is reported as 41.0773.
With `COc1cccc(NC(=O)N(CCCO)C2CCc3ccccc32)c1` (stereo not shown) [CBK305397] the “% of control remaining” value was 89.0417.
In the case of `CCOC(=O)c1ccc(NC(=O)C(C)Sc2nc3ccccc3[nH]2)cc1` (stereo not shown) [CBK267330], the “% of control remaining” value is reported as 117.191.
With `O=C(O)c1cc(S(=O)(=O)Nc2ccccc2C(=O)O)ccc1Br` [CBK262371] the “% of control remaining” value was 97.5221.
`CCN1CCCN(c2ccnc(OCCN3CCOCC3)n2)CC1` [CBK083807] was tested, and the “% of control remaining” value was 73.1539.
`COc1cc(Nc2cncc(-c3cccs3)n2)cc(OC)c1OC` [CBK065663] was tested, and the “% of control remaining” value was 69.7887.
With `COC(=O)CSc1nnc(COc2ccc3c(c2)OCO3)n1-c1ccccc1` [CBK266139] the “% of control remaining” value was 108.846.
In the case of `CN(C)c1ccc(-c2nnc([C@H]3CCN(C(=O)CCC(=O)O)C3)o2)cc1` [CBK289408], the “% of control remaining” value is reported as 109.606.
In the case of `COc1ccccc1-c1cc(Nc2cccc(N(C)C)c2)ncn1` [CBK091011], the “% of control remaining” value is reported as 101.974.
With `CN(C)CCN(C)c1nc(-c2ccc(F)c(Cl)c2)cn2ccnc12` [CBK038007] the “% of control remaining” value was 68.7403.
In the case of `COc1ccc2[nH]cc(CC(=O)N3CCCC4(CCN(Cc5ccccc5)C4)C3)c2c1` (stereo not shown) [CBK136883], the “% of control remaining” value is reported as 90.4896.
With `O=C(O)CCC(=O)Nc1ccc(Oc2ccccc2)cc1` [CBK286957] the “% of control remaining” value was 63.1168.
In the case of `Cc1ccc(Nc2nc3c(c(=O)[nH]2)CCCC3)cc1` [CBK287895], the “% of control remaining” value is reported as 77.0601.
For `CC(C)CCNC(=O)N1CCN(c2ccccc2)CC1` [CBK155203], the “% of control remaining” value was 110.854.
`COc1cc(C(O)c2cc3c(cc2CO)OCO3)cc(OC)c1OC` (stereo not shown) [CBK200098] was tested, and the “% of control remaining” value was 105.718.
`CSCCC(C(=O)O)N1C(=O)c2ccc(C(=O)O)cc2C1=O` (stereo not shown) [CBK265135] was tested, and the “% of control remaining” value was 115.114.
For `CNC(=O)c1ccc(NS(=O)(=O)c2ccc(OC(F)(F)F)cc2)cc1` [CBK043495], the “% of control remaining” value was 79.3542.
In the case of `N#Cc1c2ccccc2cn1Cc1cccc(Cl)c1` [CBK019531], the “% of control remaining” value is reported as 61.5057.
`COc1cc2c(cc1OC)C1c3ccccc3NC(=O)N1CC2` (stereo not shown) [CBK284471] was tested, and the “% of control remaining” value was 59.9272.
With `CC1(C)CC(=O)c2cc(C(N)=O)c(=O)n(-c3ccc(Cl)cc3)c2C1` [CBK293936] the “% of control remaining” value was 82.5427.
In the case of `COc1cc(C(C)=O)ccc1OCCCN1CCC(O)(C(=O)c2ccc(Cl)c(Cl)c2)CC1` [CBK024875C], the “% of control remaining” value is reported as 104.5.
In the case of `O=C(NCc1ccccc1OC1CCNC1)c1ccccc1` (stereo not shown) [CBK028301T], the “% of control remaining” value is reported as 98.7546.
In the case of `O=C1CC(N2CCC(c3nc4ccccc4s3)CC2)C(=O)N1Cc1ccccc1` (stereo not shown) [CBK267438], the “% of control remaining” value is reported as 101.334.
`COc1ccc(C(=O)N(CCC#N)Cc2ccco2)cc1` [CBK304862] was tested, and the “% of control remaining” value was 85.8991.
For `Cc1cccc(-c2ncc(NC(=O)Cc3cccc(Oc4ccccc4)c3)nc2-c2ccc(N)cc2)c1` [CBK037583], the “% of control remaining” value was 131.738.
`CNS(=O)(=O)c1ccc(CCC(=O)N(C)Cc2cnn(C)c2)cc1` [CBK305712] was tested, and the “% of control remaining” value was 54.9148.
For `Cc1ccc(O)c(Nc2ncnc3ccccc23)c1` [CBK266020C], the “% of control remaining” value was 100.691.
For `Cc1nc(S)[nH]c(=O)c1Cc1ccc(F)cc1` [CBK288456], the “% of control remaining” value was 85.6421.
For `COc1cccc2cc(C(=O)Nc3cccc(C)n3)oc12` [CBK287659], the “% of control remaining” value was 98.1869.
`Cc1cc(C)nc(NC(=O)OCCc2ccncc2)c1` [CBK138233] was tested, and the “% of control remaining” value was 105.649.
`CCOc1ccc(C(C)(CC(=O)O)C(=O)O)cc1` (stereo not shown) [CBK261361] was tested, and the “% of control remaining” value was 73.5926.
`CC(CCN(CCN)C(=O)N1CCC(Cn2cncn2)(C2CCCCC2)CC1)c1ccccc1` (stereo not shown) [CBK002130C] was tested, and the “% of control remaining” value was 81.6791.
For `O=C(COc1ccccc1)Nc1ccccc1N1CCNCC1` [CBK028279T], the “% of control remaining” value was 89.146.
`Nc1cc2cccnc2c(-c2ccc(OC(F)(F)F)cc2)n1` [CBK061926] was tested, and the “% of control remaining” value was 82.5079.
